Measured values published in the RNAGym collection of RNA variant scans (doi:10.1093/nar/gkz1192).
Read counts are not given, so values of variants with three or more changes are uncertain.

B1: CPEB3 Ribozyme (parent)
chain: UAACAGGGGGCCACAGCAGAAGCGUUCACGUCGCAGCCCCUGUCAGAUUCUGGUGAAUCUGCGAAUUCUGCUGUAUAUCUC

Variants of: B1
Assay: self-cleavage, relative activity (ratio to wild type); higher = more cleavage; in vitro, sequencing
In short: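 Relative activity was defined as the cleaved/total read fraction for a variant divided by the same fraction for the unmutated ribozyme. CPEB3 self-cleaving ribozyme libraries were made by rounds of error-prone PCR, barcoded, and transcribed in vitro with T7 RNA polymerase for 5 hours at 37°C, and cleavage ran through transcription plus a 15 min DNase I step before EDTA. Illumina sequencing of template-switched reverse transcripts gave the reads, and DNA sequencing mapped the barcodes. Averages come from three batches, using variants with at least 5 reads.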

For UAACAGGGGGCCACAGCAGAAGGGUUCACGCCGCAGCCCCUGUCAGAUUCUGGUGGAUCUGCGAAUUCUGCCGUAAACCUC [C23G U31C A56G U72C U76A U78C], which self-cleavage is on record?
The self-cleavage was 0.04.

With UAACAGGGGGCCACAGCAGAAGGGUUCACGUCGCAGCCCCCGUCAGAUCCUGGUGAAUCUGCGAAAUCUGCUGUACAUCUC [C23G U41C U49C U66A U76C] as the variant, how does the self-cleavage read?
Its self-cleavage is 0.06.

Which self-cleavage does the source give for UAACAGGGGGCCACAGCAGAAGGGUUCACGUCGCAGCCCCUGUCAGAUUCUGGAGAUUCUGCGAAAUCUGCUGUAUAUCUC [C23G U54A A57U U66A] here?
Its self-cleavage is 0.19.

With UAACAGGGGGCCACAGCAGAAGAGUUCACGCCGCAGCCCCAGUCAGACUCUGGUGAAUCUGCGAAUUCUGCUGUAUAUCUC [C23A U31C U41A U48C] as the variant, how does the self-cleavage read?
The self-cleavage was 0.11.

Which self-cleavage does the source give for UAACAGGGGGCCACAGCAGAAGAGUUCACGUCGCAGCCCCUGUCAGAUUCAGGUGGUUCUGCGAAUUCUGCUGUAUAUCUC [C23A U51A A56G A57U] here?
Its self-cleavage is 0.16.

Which self-cleavage does the source give for UAACAGGGGGCCACAGCAGAAGAGUUCACGCCGCGGCCCCUGUCAGAUUCUGGUGAAUCUGCGAAUCCUGCUGUAUAUCUC [C23A U31C A35G U67C] here?
Its self-cleavage is 0.06.

For UAACAGGGGGCCACAGCAGAAGAGUACACGUCGCAGCCCCUGUCAGAUUCUGGCGAAUCUGCGAAUUCUGCUGUAUAUCUC [C23A U26A U54C], which self-cleavage is on record?
The self-cleavage was 0.2.

For UAACAGGGGGCCACAGCAGAAGGGUUCAUGUCGCAGCCCCUGUCAGAUUCUGGUGAAUCUGCGAAUUCUGCUGCAUAUCUC [C23G C29U U74C], which self-cleavage is on record?
Its self-cleavage is 0.1.

For UAACAGGGGGCCACAGCAGAAGGGUUCGCGUCGCAGCCCCUGUCAGACUCUGGCGAAUCAGCGAAUUCUGCUGUAUAUCUC [C23G A28G U48C U54C U60A], which self-cleavage is on record?
The self-cleavage was 0.07.

For UAACAGGGGGCCACAGCAGAAGGGUACACGUCGCGGCCCCUGUCAGAUUCAGGUGAAUCUGCGAAUUCUGCGGUAUAUCUC [C23G U26A A35G U51A U72G], which self-cleavage is on record?
The self-cleavage was 0.09.

Which self-cleavage does the source give for UAACAGGGGGCCACAGCAGAAGGGUUCACGUCGCGGCCCCUGUCAGAUUCUGGUGAAUCUGCGAGUUCUGCUGUAUAUCUC [C23G A35G A65G] here?
The self-cleavage was 0.23.

For UAACAGGGGGCCACAGCAGAAGAGUUCACGUCGCAGCCCCCGUCAGAUUCUGGUGAAUCUGAGAAUUCUGCUGUAUGUCUC [C23A U41C C62A A77G], which self-cleavage is on record?
The self-cleavage was 0.09.

Which self-cleavage does the source give for UAACAGGGGGCCACAGCAGAAGAGUUCACGUCGCAGCCCCUGUCAGAUUCAGGUGAAUCUGCGAAUUCUGCUGUACGUCUC [C23A U51A U76C A77G] here?
The self-cleavage was 0.05.

For UAACAGGGGGCCACAGCAGAAGGGUUCACGUCGCAGCCCCUGACAGAUUCUGGUGAAUCUGCGGAUCCUGCUGUAUAUCUC [C23G U43A A64G U67C], which self-cleavage is on record?
The self-cleavage was 0.11.

With UAACAGGGGGCCACAGCAGAAGGGUUCACGUCGCAGCCCCUGUCAGAUUCUGGUGAAUCUGAGAAUUCUGCUGUAUAUCCC [C23G C62A U80C] as the variant, how does the self-cleavage read?
The self-cleavage was 0.17.

With UAACAGGGGGCCACAGCAGAAGAGUUCACGUCGCAGCCCCAGUCAGAUUCUAGUGAAUCUGCGGAAUUAGCUGUAUAUCUC [C23A U41A G52A A64G U66A C68U U69A] as the variant, how does the self-cleavage read?
The self-cleavage was 0.07.

Which self-cleavage does the source give for UAACAGGGGGCCACAGCAGAAGAGGUCUCGUCGCAGCCCCAGUCAGAUUCUGGUGAAUCUGCGAGUUCUGCUGUAUAUCUC [C23A U25G A28U U41A A65G] here?
The self-cleavage was 0.05.

With UAACAGGGGGCCACAGCAGAAGGGUUCACGUCGCAGCCCCCGUCGGAUUCUGGUGAAUCUGCGAAUUCUGCUGUAUAUCUC [C23G U41C A45G] as the variant, how does the self-cleavage read?
The self-cleavage was 0.43.

Which self-cleavage does the source give for UAACAGGGGGCCACAGCAGAAGUGUUCGCGUCGCCGCCCCUGUCAGGUUCUGGUGAAUCUGCGAAUUCUGCUGUAUAUCUC [C23U A28G A35C A47G] here?
Its self-cleavage is 0.07.

Which self-cleavage does the source give for UAACAGGGGGCCACAGCAGAAGAGUUCACGCCGCAGCCCCUGUCAGAUUCUGGUGAAACUGCGAAUUCCGCAGUAUAUCUC [C23A U31C U58A U69C U72A] here?
Its self-cleavage is 0.07.

For UAACAGGGGGCCACAGCAGAAGUGUUCGCGUCGCAGCCCCUGUCAGGUUCUGGUGAGUCUGCGAAUUAUGCUGUAUAUCUC [C23U A28G A47G A57G C68A], which self-cleavage is on record?
The self-cleavage was 0.12.

For UAACAGGGGGCCACAGCAGAAGAGUACACGUCGCAGCCCCUGUCAGAUUCUGGUGAAUCUGCGAAUUCAGCUGUAUAUCUC [C23A U26A U69A], which self-cleavage is on record?
Its self-cleavage is 0.07.

With UAACAGGGGGCCACAGCAGAAGGGUUCACGUGGCAGCCCAUGUCAGAUUCUGGUGAAUCUGCGAAUUCUGCUGUAUAUCUC [C23G C32G C40A] as the variant, how does the self-cleavage read?
The self-cleavage was 0.22.

With UAACAGGGGGCCACAGCAGAAGAGUUCACGUCGCAGCCCCCGUCAGGUUCUGGUGAAUCUGCGAAUUCUGCUGCAUAUCUC [C23A U41C A47G U74C] as the variant, how does the self-cleavage read?
Its self-cleavage is 0.16.

For UAACAGGGGGCCACAGCAGAAGAGUUCACGACGCAGCCCCUGUCAGGUUCUGGUGAAUCUGCGAAUUCUGCUGCAUAUCUC [C23A U31A A47G U74C], which self-cleavage is on record?
The self-cleavage was 0.12.

For UAACAGGGGGCCACAGCAGAAGAGUUCACGCCGCAGCCCCUGUCAGAUUCUGGUGAAUCUGCGAAUUCUGCUGUAUAUCCC [C23A U31C U80C], which self-cleavage is on record?
The self-cleavage was 0.23.

Which self-cleavage does the source give for UAACAGGGGGCCACAGCAGAAGGGCUCACGUCGCAGCCUCUGUCAGAUUCUGGUGAGUCUGCGAAGUCUGCUAUGUAUCUC [C23G U25C C39U A57G U66G G73A A75G] here?
The self-cleavage was 0.24.

With UAACAGGGGGCCACAGCAGAAGGGUUCUCGUCGCAGCCCCUGUCAGAUUUUGGAGAAUCAGCGAAUUCUGCUGUAUACCUC [C23G A28U C50U U54A U60A U78C] as the variant, how does the self-cleavage read?
Its self-cleavage is 0.14.

With UAACAGGGGGCCACAGCAGAAGGGCUCACGUCGCAGCCCCUGUCAGAUUCUGGUGAAUCUGCGAAUUCUGCUGUAUAGCUC [C23G U25C U78G] as the variant, how does the self-cleavage read?
The self-cleavage was 0.31.

For UAACAGGGGGCCACAGCAGAAGAGUUCACGUCGCAGCCCCUGUCAGAUUCUGGAGAACCUGCGACUUCUGCUGUAUAUCUC [C23A U54A U58C A65C], which self-cleavage is on record?
Its self-cleavage is 0.09.

With UAACAGGGGGCCACAGCAGAAGGGUUCACGUCGCAGCCCCUGUCAGACUCCGGCGAAUCUGCGAAUUCUGCUGUAUAUCUC [C23G U48C U51C U54C] as the variant, how does the self-cleavage read?
Its self-cleavage is 0.07.

For UAACAGGGGGCCACAGCAGAAGGGUUCACGUCGCAGCCCCUGUCAGAUUCUGGUGGAUCUGCGAAUUCUGCUGUAUACCUC [C23G A56G U78C], which self-cleavage is on record?
Its self-cleavage is 0.09.

With UAACAGGGGGCCACAGCAGAAGAGGUCACGUCGCAGCCCCUGUCAGAUUCAGGUGAAUCUGCGAAUUCUGCUGUAUAUCUC [C23A U25G U51A] as the variant, how does the self-cleavage read?
The self-cleavage was 0.04.

For UAACAGGGGGCCACAGCAGAAGAGUUCACGUCGCAGCCCCUGCCAGACUCUGGUGGUUCUGCGAAUUCUGCUGUAUAUCUC [C23A U43C U48C A56G A57U], which self-cleavage is on record?
The self-cleavage was 0.12.
